# Source: a collection of fitness landscapes (doi:10.1126/science.1257360)
# The list shows a part of the results.
# B1: PhoQ; a variant is named by its letters at X, in order, P23837 (parent)
# chain: MKKLLRLFFPLSLRVRFLLATAAVVLVLSLAYGMVALIGYSVSFDKTTFRLLRGESNLFYTLAKWENNKLHVELPENIDKQSPTMTLIYDENGQLLWAQRDVPWLMKMIQPDWLKSNGFHEIEADVNDTSLLLSGDHSIQQQLQEVREDDDDAEMTHSVAVNVYPATSRMPKLTIVVVDTIPVELKSSYMVWSWFIYVLSANLLLVIPLLWVAAWWSLRPIEALAKEVRELEEHNRELLNPATTRELTSLVRNLNRLLKSERERYDKYRTTLTDLTHSLKTPLXXLQXXLRSLRSEKMSVSDAEPVMLEQISRISQQIGYYLHRASMRGGTLLSRELHPVAPLLDNLTSALNKVYQRKGVNISLDISPEISFVGEQNDFVEVMGNVLDNACKYCLEFVEISARQTDEHLYIVVEDDGPGIPLSKREVIFDRGQRVDTLRPGQGVGLAVAREITEQYEGKIVAGESMLGGARMEVIFGRQHSAPKDE
# Variants of: B1
# Test: enrichment ratio after two sorts for PhoP signalling (ratio (wild type AVST 3.29)); higher = more functional
# Details: with PhoP (E. coli)
row,Variant,enrichment ratio
1,PHYR,≤ 0.25
2,DFYR,≤ 0.25
3,RDLD,≤ 0.25
4,VSHC,≤ 0.25
5,PCPL,≤ 0.25
6,YTPW,≤ 0.25
7,PEIL,0.746
8,EQAT,≤ 0.25
9,QSCY,≤ 0.25
10,YHID,≤ 0.25
11,NTKQ,≤ 0.25
12,LYVA,≤ 0.25
13,YWPH,≤ 0.25
14,LTYH,≤ 0.25
15,GMHS,≤ 0.25
16,MPDD,≤ 0.25
17,DTRS,≤ 0.25
18,ANMI,26.5
19,GDNT,≤ 0.25
20,IQMC,≤ 0.25
21,IKGY,≤ 0.25
22,ATSW,1.32
23,PTNC,≤ 0.25
24,NHDV,≤ 0.25

row,Variant,enrichment ratio
1,WGVK,≤ 0.25
2,NPPE,≤ 0.25
3,ATSQ,11.6
4,IWYW,≤ 0.25
5,MFLF,≤ 0.25
6,QIIF,≤ 0.25
7,HLPG,≤ 0.25
8,GNGV,≤ 0.25
9,EQAS,≤ 0.25
10,CFLP,≤ 0.25
11,TAFQ,5.49
12,QWLG,≤ 0.25
13,FFHY,≤ 0.25
14,MKLR,≤ 0.25
15,FQHS,≤ 0.25
16,SKPW,≤ 0.25
17,RIWK,≤ 0.25
18,VTGC,≤ 0.25
19,ITCE,≤ 0.25
20,ARLN,≤ 0.25
21,RHYF,≤ 0.25
22,QMSQ,≤ 0.25
23,LDTV,0.316
24,IHWV,≤ 0.25

row,Variant,enrichment ratio
1,RFWE,≤ 0.25
2,ATAT,≤ 0.25
3,YLCL,0.521
4,TILM,≤ 0.25
5,IWTG,≤ 0.25
6,NDCQ,≤ 0.25
7,FNYR,≤ 0.25
8,EGDF,≤ 0.25
9,VAVC,≤ 0.25
10,VGKI,≤ 0.25
11,PAAP,≤ 0.25
12,GDLV,3.9
13,QTER,≤ 0.25
14,PPMI,≤ 0.25
15,FKQE,≤ 0.25
16,IHGR,≤ 0.25
17,TWIG,≤ 0.25
18,SGPW,≤ 0.25
19,SMPI,1.09
20,MQSP,≤ 0.25
21,KIPH,≤ 0.25
22,DYRI,≤ 0.25
23,VKMY,≤ 0.25
24,WNWK,≤ 0.25

row,Variant,enrichment ratio
1,AMTE,15.1
2,VWIF,≤ 0.25
3,TVCD,≤ 0.25
4,LPRV,≤ 0.25
5,DSKR,≤ 0.25
6,QSFG,2.89
7,FPDM,≤ 0.25
8,FFYE,≤ 0.25
9,MFWP,≤ 0.25
10,LKFY,≤ 0.25
11,MEVQ,≤ 0.25
12,PQNM,≤ 0.25
13,LGKN,≤ 0.25
14,PYPQ,≤ 0.25
15,CIAV,≤ 0.25
16,FFTY,≤ 0.25
17,QYGR,≤ 0.25
18,NPKG,≤ 0.25
19,TERK,≤ 0.25
20,AFAD,≤ 0.25
21,WVKV,≤ 0.25
22,SNQE,18.7
23,YWLV,≤ 0.25
24,SWWR,≤ 0.25

row,Variant,enrichment ratio
1,QQFP,≤ 0.25
2,HVPC,≤ 0.25
3,GSFS,≤ 0.25
4,PSPT,≤ 0.25
5,FCLC,7.16
6,EGME,≤ 0.25
7,QLWG,≤ 0.25
8,TNVQ,≤ 0.25
9,WEYC,≤ 0.25
10,GTGG,≤ 0.25
11,PCIA,≤ 0.25
12,HDHV,≤ 0.25
13,TIHA,≤ 0.25
14,PCPD,≤ 0.25
15,PNAW,≤ 0.25
16,PQDW,≤ 0.25
17,RCVA,≤ 0.25
18,VLAL,0.925
19,RLEF,≤ 0.25
20,NGGD,≤ 0.25
21,YSMM,14.3
22,GSWG,≤ 0.25
23,LNAQ,≤ 0.25
24,KVMV,≤ 0.25

row,Variant,enrichment ratio
1,VEHV,≤ 0.25
2,MSMD,≤ 0.25
3,PRVA,≤ 0.25
4,NEGY,≤ 0.25
5,FADA,≤ 0.25
6,PGML,≤ 0.25
7,WPAC,≤ 0.25
8,WWNA,≤ 0.25
9,LKHC,≤ 0.25
10,NGCV,≤ 0.25
11,TYWK,≤ 0.25
12,FCQY,≤ 0.25
13,FASG,≤ 0.25
14,KMQN,≤ 0.25
15,FLAF,≤ 0.25
16,RIWA,≤ 0.25
17,GSKS,≤ 0.25
18,VNHN,≤ 0.25
19,KRLP,≤ 0.25
20,VMDC,≤ 0.25
21,WDFM,≤ 0.25
22,TPVY,≤ 0.25
23,LHMM,≤ 0.25
24,NTRS,≤ 0.25

row,Variant,enrichment ratio
1,VMWK,≤ 0.25
2,PACE,≤ 0.25
3,GRIC,≤ 0.25
4,IMID,≤ 0.25
5,FTCN,≤ 0.25
6,TICP,≤ 0.25
7,PVFP,≤ 0.25
8,GSPE,≤ 0.25
9,LHDY,≤ 0.25
10,TVYW,≤ 0.25
11,TKSM,6.54
12,GMIR,1.56
13,PHSL,≤ 0.25
14,NDML,≤ 0.25
15,PHQC,≤ 0.25
16,YNAT,≤ 0.25
17,QTVG,≤ 0.25
18,PMDP,≤ 0.25
19,IEFD,≤ 0.25
20,DVDM,≤ 0.25
21,ILTM,≤ 0.25
22,ANSE,11.5
23,MTWV,0.638
24,MIML,14

row,Variant,enrichment ratio
1,HCSI,≤ 0.25
2,RSIT,≤ 0.25
3,NTQH,≤ 0.25
4,PAPM,≤ 0.25
5,ISEV,≤ 0.25
6,QVAC,≤ 0.25
7,DHSS,≤ 0.25
8,MWAE,≤ 0.25
9,RIMV,≤ 0.25
10,WDWW,≤ 0.25
11,KDFE,≤ 0.25
12,YYHC,≤ 0.25
13,MWCS,≤ 0.25
14,FHHK,≤ 0.25
15,HPYA,≤ 0.25
16,NVCL,≤ 0.25
17,AAVG,2.19
18,SMQP,≤ 0.25
19,NHNV,≤ 0.25
20,VNIT,0.43
21,FDLI,≤ 0.25
22,FCSG,≤ 0.25
23,KEKM,≤ 0.25
24,PTGL,≤ 0.25

row,Variant,enrichment ratio
1,RGIC,≤ 0.25
2,DQGT,≤ 0.25
3,FCVT,≤ 0.25
4,NCAL,≤ 0.25
5,MLLC,≤ 0.25
6,YHMG,≤ 0.25
7,LHSL,≤ 0.25
8,QKEG,≤ 0.25
9,HMLM,≤ 0.25
10,PGTK,≤ 0.25
11,RDMT,≤ 0.25
12,QAPF,≤ 0.25
13,SDGL,≤ 0.25
14,DFRY,≤ 0.25
15,YERR,≤ 0.25
16,TSNY,8.01
17,YVRP,≤ 0.25
18,PGVY,≤ 0.25
19,RGLG,≤ 0.25
20,QDFS,≤ 0.25
21,WDHD,≤ 0.25
22,FDQV,≤ 0.25
23,DYGF,≤ 0.25
24,MVML,11.9

row,Variant,enrichment ratio
1,AETS,20.8
2,QHTC,≤ 0.25
3,LWLL,0.353
4,NKVT,≤ 0.25
5,WTHL,≤ 0.25
6,DVTA,≤ 0.25
7,IYDR,≤ 0.25
8,NVRL,≤ 0.25
9,QSLQ,≤ 0.25
10,FEEA,≤ 0.25
11,IPRK,≤ 0.25
12,FVTP,≤ 0.25
13,IPHD,≤ 0.25
14,VWPC,≤ 0.25
15,GSNR,≤ 0.25
16,AQPC,≤ 0.25
17,PCFG,≤ 0.25
18,LNIN,≤ 0.25
19,GCGS,≤ 0.25
20,SDIC,15.1
21,EMVR,≤ 0.25
22,LPNS,≤ 0.25
23,TRRA,≤ 0.25
24,DFST,≤ 0.25

row,Variant,enrichment ratio
1,GKCF,≤ 0.25
2,RGKF,≤ 0.25
3,YSWA,≤ 0.25
4,LKSA,≤ 0.25
5,AQKF,≤ 0.25
6,LETS,≤ 0.25
7,PLIE,≤ 0.25
8,FQYK,≤ 0.25
9,PWAQ,≤ 0.25
10,GTIF,5.62
11,KDCC,≤ 0.25
12,QFPL,≤ 0.25
13,QFAF,≤ 0.25
14,YAGY,≤ 0.25
15,IGVP,≤ 0.25
16,YQIE,≤ 0.25
17,FFSM,≤ 0.25
18,MSNV,≤ 0.25
19,IIWG,≤ 0.25
20,RQQT,≤ 0.25
21,YKGK,≤ 0.25
22,DFGD,≤ 0.25
23,SSDQ,≤ 0.25
24,IFQF,≤ 0.25

row,Variant,enrichment ratio
1,AVQE,≤ 0.25
2,EQKY,≤ 0.25
3,HRNW,≤ 0.25
4,IHHC,≤ 0.25
5,MQFQ,11.9
6,ERKY,≤ 0.25
7,QVMW,≤ 0.25
8,TYAQ,≤ 0.25
9,ILVS,≤ 0.25
10,WSDE,≤ 0.25
11,ENAV,≤ 0.25
12,VICQ,≤ 0.25
13,AQPA,≤ 0.25
14,LVNH,≤ 0.25
15,AWYF,≤ 0.25
16,RHRL,≤ 0.25
17,EMLA,≤ 0.25
18,YWHD,≤ 0.25
19,SNCF,4.82
20,MVAQ,4.37
21,SDEG,≤ 0.25
22,NWVI,≤ 0.25
23,HSEC,≤ 0.25
24,VGRI,≤ 0.25

row,Variant,enrichment ratio
1,KCII,≤ 0.25
2,QLHS,≤ 0.25
3,DMGG,≤ 0.25
4,MTVK,≤ 0.25
5,TNFK,≤ 0.25
6,PFIL,≤ 0.25
7,IFPS,≤ 0.25
8,THWR,≤ 0.25
9,WNRQ,≤ 0.25
10,ANPA,≤ 0.25
11,QKKS,≤ 0.25
12,NMVQ,≤ 0.25
13,WTMA,≤ 0.25
14,FEPV,≤ 0.25
15,RSTF,≤ 0.25
16,IECS,2.89
17,MPVM,≤ 0.25
18,EDIT,≤ 0.25
